Measured values: PubChem BioAssay AID504333 (National Center for Advancing Translational Sciences (NCATS), 2011)
The whole screen tested about 360,000 compounds, of which about 16,000 (4.4%) were called active. The inconclusive results got no clear call from the source; some entries with a clear call stand among them for comparison. Calls come from the whole dose curve; as a rule, active = well fitted inhibition curve with a large enough effect; inconclusive = small, poorly fitted or top-dose-only effect; inactive = no such curve, though single readings can be large or run the other way. A potency beside an inconclusive call is a rough fit, not a confirmed value.

These molecules were tested against Bromodomain adjacent to zinc finger domain protein 2B (Homo sapiens) (UniProt Q9UIF8) (assay: qHTS Assay for Inhibitors of BAZ2B). Settings: AlphaScreen BAZ2B-H3K14Ac peptide displacement; activity change, negative = inhibition: at 114 µM (top of the series).
UniProt Q9UIF8, sequence (Q9UIF8 whole entry, looked up, the tested form may be a part): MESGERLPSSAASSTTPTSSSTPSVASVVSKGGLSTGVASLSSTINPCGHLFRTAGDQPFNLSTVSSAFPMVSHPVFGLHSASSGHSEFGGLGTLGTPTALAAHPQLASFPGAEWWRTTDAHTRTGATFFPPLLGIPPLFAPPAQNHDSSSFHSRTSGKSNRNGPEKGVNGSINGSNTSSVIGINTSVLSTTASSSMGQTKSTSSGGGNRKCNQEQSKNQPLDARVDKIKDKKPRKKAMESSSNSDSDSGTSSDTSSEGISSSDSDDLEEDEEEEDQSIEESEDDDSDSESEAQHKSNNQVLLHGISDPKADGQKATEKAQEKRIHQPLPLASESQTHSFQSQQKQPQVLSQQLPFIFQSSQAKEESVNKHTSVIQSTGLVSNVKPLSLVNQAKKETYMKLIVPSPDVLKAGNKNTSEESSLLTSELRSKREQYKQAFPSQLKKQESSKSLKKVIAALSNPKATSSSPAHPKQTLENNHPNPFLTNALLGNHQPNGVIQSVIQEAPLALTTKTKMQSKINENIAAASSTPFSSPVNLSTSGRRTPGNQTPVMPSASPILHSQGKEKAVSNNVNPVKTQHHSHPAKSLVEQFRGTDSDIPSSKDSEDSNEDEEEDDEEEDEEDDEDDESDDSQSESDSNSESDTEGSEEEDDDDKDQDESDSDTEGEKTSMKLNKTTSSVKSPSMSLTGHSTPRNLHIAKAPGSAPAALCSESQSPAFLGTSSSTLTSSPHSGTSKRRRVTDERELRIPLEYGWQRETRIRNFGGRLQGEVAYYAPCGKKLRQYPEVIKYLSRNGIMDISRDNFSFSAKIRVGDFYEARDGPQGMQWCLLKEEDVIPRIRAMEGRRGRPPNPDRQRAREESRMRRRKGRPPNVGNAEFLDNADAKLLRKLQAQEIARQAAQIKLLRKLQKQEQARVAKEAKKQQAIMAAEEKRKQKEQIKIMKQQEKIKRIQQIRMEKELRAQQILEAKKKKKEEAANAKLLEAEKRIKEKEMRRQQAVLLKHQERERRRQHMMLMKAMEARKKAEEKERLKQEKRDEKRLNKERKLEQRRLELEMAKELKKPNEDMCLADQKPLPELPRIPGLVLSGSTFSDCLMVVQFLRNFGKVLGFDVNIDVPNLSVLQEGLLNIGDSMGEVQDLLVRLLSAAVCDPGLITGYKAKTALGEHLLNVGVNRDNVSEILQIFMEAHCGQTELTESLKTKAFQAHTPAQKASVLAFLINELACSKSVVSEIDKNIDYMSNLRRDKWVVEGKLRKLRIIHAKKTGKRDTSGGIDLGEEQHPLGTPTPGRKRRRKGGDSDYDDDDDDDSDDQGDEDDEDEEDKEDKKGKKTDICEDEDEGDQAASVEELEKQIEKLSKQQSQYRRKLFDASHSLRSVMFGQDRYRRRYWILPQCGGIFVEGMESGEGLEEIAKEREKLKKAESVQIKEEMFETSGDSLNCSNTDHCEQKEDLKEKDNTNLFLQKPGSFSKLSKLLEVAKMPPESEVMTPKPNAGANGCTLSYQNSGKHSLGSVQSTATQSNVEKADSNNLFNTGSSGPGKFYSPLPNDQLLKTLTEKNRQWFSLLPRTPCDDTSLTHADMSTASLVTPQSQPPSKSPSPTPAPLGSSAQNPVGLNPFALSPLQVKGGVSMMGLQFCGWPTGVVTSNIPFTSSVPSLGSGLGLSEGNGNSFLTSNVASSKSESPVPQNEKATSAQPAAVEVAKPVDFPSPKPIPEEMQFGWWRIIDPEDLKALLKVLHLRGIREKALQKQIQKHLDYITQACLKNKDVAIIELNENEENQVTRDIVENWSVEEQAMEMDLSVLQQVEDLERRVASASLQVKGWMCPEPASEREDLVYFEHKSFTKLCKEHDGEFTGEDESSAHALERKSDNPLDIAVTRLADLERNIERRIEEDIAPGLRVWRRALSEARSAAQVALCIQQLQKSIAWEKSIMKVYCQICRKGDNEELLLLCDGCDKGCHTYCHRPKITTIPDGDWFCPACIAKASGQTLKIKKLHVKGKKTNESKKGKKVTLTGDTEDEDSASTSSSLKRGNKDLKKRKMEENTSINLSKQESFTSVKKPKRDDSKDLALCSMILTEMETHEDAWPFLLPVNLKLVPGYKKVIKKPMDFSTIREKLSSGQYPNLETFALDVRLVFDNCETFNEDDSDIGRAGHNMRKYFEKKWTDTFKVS
Procedure, shortened: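 Compounds, titrated to a top concentration of 110 uM, were incubated 30 min at room temperature with preformed BAZ2B/acetyl-K14 H3 peptide complex (50 nM each). Proximity signal was measured by AlphaScreen after 20 min with beads.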
% is set by controls: 0 for no effect and ±100 for the full control effect; potency is the fitted concentration of half-maximal effect; tags give direction and shape of the fitted curve.
Note: nearly all actives have a fitted effect of over 60% in size.

**Q.** COc1ccc(CCNC(=O)c2ccc3nc(-c4ccco4)c(-c4ccco4)nc3c2)cc1OC was tested. Which Potency did it give?
**A.** active: 50.1 µM

**Q.** How did the Potency turn out when Cc1ccc(NS(=O)(=O)c2ccc3c(c2)C(=O)c2ccccc2C3=O)c(C)c1 was run?
**A.** inconclusive: 17.8 µM [inhibitor, full curve]

**Q.** With COc1ccc(NC(=O)C2CC(=O)N(c3ccccc3C)C2)c(OC)c1 (stereo unspecified) as the molecule, how does the “activity change, negative = inhibition” value read?
**A.** inactive: -18.6%

**Q.** Which “activity change, negative = inhibition” value does the source give for O=C(O)c1ccc(CSc2nnnn2-c2ccc(F)cc2)cc1 here?
**A.** inactive: -0.795%

**Q.** How did the Potency turn out when O=C(O)c1ccc(Oc2ccc(S(=O)(=O)c3ccc(C(=O)O)c(C(=O)O)c3)cc2)cc1 was run?
**A.** inconclusive: 70.8 µM [inhibitor, single point]

**Q.** O=C(CCn1cccc1)NC1CCCc2ccccc21 (stereo unspecified) was tested. Which Potency did it give?
**A.** inconclusive: 50.1 µM [inhibitor, partial curve]

**Q.** Which Potency does the source give for COc1ccc(CN2CCc3c([nH]c4ccccc34)C2)c(OC)c1C here?
**A.** active: 44.7 µM

**Q.** For CC(C)S(=O)(=O)C1=NSC2=NC(=O)/C(=C\c3ccc(-c4ccccc4)o3)C(=N)N21, which Potency is on record?
**A.** inconclusive: 70.8 µM [inhibitor, single point]

**Q.** For COc1cccc(NC(=O)CSc2nnc(Cc3cccn3C)n2-c2ccc(F)cc2)c1, which Potency is on record?
**A.** active: 50.1 µM

**Q.** CCCN(CC(=O)Nc1ccccc1C)C(=O)c1cc(=O)[nH]c2ccccc12 was tested. Which Potency did it give?
**A.** inconclusive: 89.1 µM [inhibitor, single point]

**Q.** Which Potency does the source give for COc1ccc(Nc2cc(C(=O)NCCCN3CCN(C)CC3)c3ccccc3n2)c(OC)c1 here?
**A.** inconclusive: 56.2 µM [inhibitor, partial curve]

**Q.** Which Potency does the source give for O=C(O)c1ccc(COc2ccc3ccccc3c2/C=C2/NC(=O)N(Cc3ccc(F)cc3)C2=O)cc1 here?
**A.** active: 28.2 µM

**Q.** Which Potency does the source give for COc1ccc(OC)c(Nc2nc(-c3ccc(O)c(O)c3)cs2)c1 here?
**A.** active: 50.1 µM

**Q.** Which Potency does the source give for Cc1nc(NC(=S)NC(=O)c2ccccc2)sc1C here?
**A.** inconclusive: 89.1 µM [inhibitor, single point]

**Q.** CS(=O)(=O)N1CCC(C(=O)NCc2ccc(F)cc2)CC1 was tested. Which “activity change, negative = inhibition” value did it give?
**A.** inactive: -0.173%

**Q.** Cc1ccc(CNC(=O)C(C(=O)NCc2ccc(C)o2)c2ncc(C(F)(F)F)cc2Cl)o1 was tested. Which Potency did it give?
**A.** inconclusive: 89.1 µM [inhibitor, single point]

**Q.** How did the Potency turn out when O=C(CCN1C(=O)/C(=C/c2cccs2)SC1=S)Nc1ccc(C(=O)O)c(O)c1 was run?
**A.** active: 56.2 µM

**Q.** Which “activity change, negative = inhibition” value does the source give for CC(C)=C1C2CCC1C1C(=O)N(c3nc(-c4ccccc4)c(C)s3)C(=O)C21 (stereo unspecified) here?
**A.** inactive: 3.31%

**Q.** With O=C(COc1cccnc1[N+](=O)[O-])c1ccc(Cl)s1 as the molecule, how does the Potency read?
**A.** active: 39.8 µM

**Q.** Cc1ccc(Cl)cc1N(C)C(=O)c1sc2nc3n(c(=O)c2c1C)CCCC3 was tested. Which Potency did it give?
**A.** inconclusive: 79.4 µM [inhibitor, single point]

**Q.** With Cc1ccc(C)c(C(=O)CC2(O)C(=O)N(C)c3ccccc32)c1 (stereo unspecified) as the molecule, how does the Potency read?
**A.** inconclusive: 89.1 µM [inhibitor, single point]

**Q.** Which Potency does the source give for CC1CC(C)CN(CCCNC(=O)c2ccc3c(c2)N(Cc2ccccc2)C(=O)c2ccccc2S3=O)C1 (stereo unspecified) here?
**A.** inconclusive: 22.4 µM [inhibitor, full curve]

**Q.** How did the “activity change, negative = inhibition” value turn out when Cc1ccc(-c2csc(C3=C(O)CN(NC(=O)c4ccco4)C3=N)n2)cc1 was run?
**A.** inactive: 1.29%

**Q.** For O=C(COC(=O)c1ccccc1O)Nc1ncc(Cl)cc1Cl, which Potency is on record?
**A.** active: 50.1 µM

**Q.** O=C(O)CCc1ccc(-c2ccc(Cl)cc2)n1Cc1ccco1 was tested. Which Potency did it give?
**A.** active: 50.1 µM

**Q.** For Cc1ccc(CNC(=O)CCCCCn2c(=O)c3sccc3n(CC(=O)C(C)(C)C)c2=O)cc1, which “activity change, negative = inhibition” value is on record?
**A.** inactive: 2.1%

**Q.** CN1CCN(Cc2nc(-c3cccs3)no2)CC1c1ccccc1 (stereo unspecified) was tested. Which “activity change, negative = inhibition” value did it give?
**A.** inactive: -4.82%

**Q.** With Cc1ccc(C)c(N2CCN(C(=O)c3ccc(NS(=O)(=O)c4c(C)noc4C)cc3)CC2)c1 as the molecule, how does the Potency read?
**A.** inconclusive: 56.2 µM [inhibitor, partial curve]

**Q.** With CC(C(=O)OCC(=O)c1ccc([N+](=O)[O-])cc1)N1C(=O)C2C3CCC(C3)C2C1=O (stereo unspecified) as the molecule, how does the Potency read?
**A.** inconclusive: 1 µM [inhibitor, full curve, poor fit]

**Q.** Which Potency does the source give for CC(C)OC(=O)c1c2c(n3ccccc13)C(=O)c1ccccc1C2=O here?
**A.** active: 31.6 µM

**Q.** Which Potency does the source give for COc1ccc(NC(=O)c2ccco2)cc1NC(=O)c1cccc(C)c1OC here?
**A.** inconclusive: 70.8 µM [inhibitor, single point]

**Q.** With COc1ccc(C2(C)NC(=O)N(CC(=O)c3cc(C)n(C4CC4)c3C)C2=O)cc1OC (stereo unspecified) as the molecule, how does the Potency read?
**A.** inconclusive: 89.1 µM [inhibitor, single point]

**Q.** For Cc1ccccc1-n1c(SCC(=O)c2ccccc2)nnc1-c1ccc(F)cc1, which Potency is on record?
**A.** inconclusive: 2.82 µM [inhibitor, full curve, poor fit]

**Q.** With Cc1cc(OC(C)C(=O)NCc2cccnc2)c2c(C)c(Cc3ccccc3)c(=O)oc2c1 (stereo unspecified) as the molecule, how does the Potency read?
**A.** inconclusive: 56.2 µM [inhibitor, partial curve]

**Q.** With O=C(N1CCOCC1)N(CCN1CCOCC1)Cc1cccc2ccccc12 as the molecule, how does the “activity change, negative = inhibition” value read?
**A.** inactive: 8.78%

**Q.** With COc1ccccc1N=C1SCC(=O)N1Cc1ccco1 as the molecule, how does the Potency read?
**A.** inconclusive: 79.4 µM [inhibitor, single point]

**Q.** Which “activity change, negative = inhibition” value does the source give for Cc1ccc(OCC(=O)N/N=C/c2ccco2)cc1 here?
**A.** inactive: 5.98%

**Q.** CCc1ccc(C(=O)Nc2ccc3c(c2)n(C)c(=O)n3C)cc1 was tested. Which Potency did it give?
**A.** inconclusive: 89.1 µM [inhibitor, single point]

**Q.** For CCOC(=O)N1CCC(N(CCN(C)C)C(=S)Nc2cc(Cl)cc(Cl)c2)CC1, which Potency is on record?
**A.** active: 79.4 µM

**Q.** For CCOC(=O)C1CCCN(Cc2cc(Br)c(OC)cc2OC)C1 (stereo unspecified), which Potency is on record?
**A.** active: 50.1 µM

**Q.** Which Potency does the source give for O=C(N/N=C/c1cc(Br)c(O)c(Br)c1)c1cc2c(ccc3ccccc32)o1 here?
**A.** active: 39.8 µM

**Q.** How did the “activity change, negative = inhibition” value turn out when COc1ccc2c(c1)C(c1ccc(Cl)cc1)NC(=O)C2 (stereo unspecified) was run?
**A.** inactive: 8.42%

**Q.** Which Potency does the source give for Cc1noc(NS(=O)(=O)c2ccc(NC(=O)c3ccc(N4C(=O)c5ccccc5C4=O)cc3)cc2)c1C here?
**A.** active: 50.1 µM

**Q.** For O=C(NNS(=O)(=O)c1ccccc1[N+](=O)[O-])c1ccc(O)cc1, which Potency is on record?
**A.** active: 50.1 µM

**Q.** Cc1cc(C(=O)COC(=O)c2cccnc2Cl)c(C)n1CC1CCCO1 (stereo unspecified) was tested. Which Potency did it give?
**A.** inconclusive: 79.4 µM [inhibitor, single point]

**Q.** How did the Potency turn out when S=C1NC2(CCS1)Oc1ccccc1C1CC(c3ccccc3)=NN12 (stereo unspecified) was run?
**A.** inconclusive: 50.1 µM [inhibitor, partial curve]
